Data taken from publication PMC10360995, “Discovery of 3-((3-amino-1H-indazol-4-yl)ethynyl)-N-(4-((4-ethylpiperazin-1-yl)methyl)-3-(trifluoromethyl)phenyl)benzamide (AKE-72), a potent Pan-BCR-ABL inhibitor including the T315I gatekeeper resistant mutant” (Journal of Enzyme Inhibition and Medicinal Chemistry, 2023).

Tests used:
BCR-ABL^T315I [1] = target: T1, BCR-ABL^T315I (Homo sapiens, UniProt P00519, T315I); experiment: biochemical
Excerpt: . Meanwhile, both 4a and 4b surpassed the potency of lead indazoles II and I towards BCR-ABL^T315I with 8–11, and about two times, respectively. […] . […] . [table]

[2] = test system: Ba/F3 cells expressing BCR-ABL^T315I; experiment: Cellular proliferation assay; type: cell-based; details: Mus musculus, BaF3, read-out: GI50 Ba/F3 (Bcr-Abl^T315I)
Excerpt: We also tested AKE-72 against BCR-ABL-positive and BCR-ABL-negative cell lines.
1.8. Cytochrome P450 Assay
The binding site was defined based

BCR-ABL^T315I [3] = target: T1, BCR-ABL^T315I; details: cited from earlier work

Row | SMILES | IC50 (BCR-ABL^T315I [1]) [nM] | fold potency towards BCR-ABL^T315I versus lead indazole I (BCR-ABL^T315I [1]; relative to I) | fold more potent towards BCR-ABL^T315I than 4b (BCR-ABL^T315I [1]; relative to 4b) [folds] | fold more potent towards BCR-ABL^T315I than lead I (BCR-ABL^T315I [1]; relative to I) [folds] | GI50 [2] [nM] | IC50 (BCR-ABL^T315I [3]) [nM]
1 | CN1CCN(Cc2ccc(C(=O)Nc3cccc(C#Cc4cccc5[nH]nc(N)c45)c3)cc2C(F)(F)F)CC1 [Compound 4a] | 96 ± 1.47 | about two |  |  |  | 
2 | CCN1CCN(Cc2ccc(C(=O)Nc3cccc(C#Cc4cccc5[nH]nc(N)c45)c3)cc2C(F)(F)F)CC1 [Compound 4b] | 142 ± 18.9 | about two |  |  |  | 
3 | CCN1CCN(Cc2ccc(NC(=O)c3cccc(C#Cc4cccc5[nH]nc(N)c45)c3)cc2C(F)(F)F)CC1 [Compound 5, 3-((3-amino-1H-indazol-4-yl)ethynyl)-N-(4-((4-ethylpiperazin-1-yl)methyl)-3-(trifluoromethyl)phenyl)benzamide] | 9 ± 3.14 |  | 16 | 25 | 290 ± 36 | 
4 | Nc1n[nH]c2cccc(C#Cc3cccc(NC(=O)c4ccc(N5CCOCC5)c(C(F)(F)F)c4)c3)c12 [I, reference compound] |  |  |  |  |  | 227 ± 44

Like-named read-outs stand apart in the source and are kept apart here.
